# Measurements from a collection of fitness landscapes (doi:10.1016/j.celrep.2020.107928).
# Over roughly 81,000 sequences, “one-hybrid fitness for binding NBS DNA” has its median near -0.1; the highest 2% begin near 0.36. The list shows a part of the results.
# B1: Caulobacter ParB omega fusion; a variant is named by its letters at X, in order, B8GW30 (parent)
# chain: MESVVVGEPGMSEGRRGLGRGLSALLGEVDAAPAQAPGEQLGGSREAPIEILQRNPDQPRRTFREEDLEDLSNSIREKGVLQPILVRPSPDTAGEYQIVAGERAWRAAQRAGLKTVPIMVRELDDLAVLEIGIIENVQRADLNVLEEALSYKVLMEKFERTQENIAQTIGKSXSHVANXMRLLXLPDEVQSYLVSGELTAXHARAIAAAADPVALAKQIIEGGLSVRETEALARKAPNLSAGKSKGGRPPRVKDTDTQALESDLSSVLGLDVSIDHRGSTGTLTITYATLEQLDDLCNRLTRGI
# Variants of: B1
# Assay: one-hybrid fitness for binding NBS DNA (the Noc-binding site; scaled: cognate 1, non-cognate 0); higher = stronger binding
# Conditions: with NBS DNA site
# Outline: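 Selection: bacterial one-hybrid in E. coli USO, HIS3 reporter with the site 19 bp from the promoter, 48 hours at 37°C on M9-minus-histidine plus 0.1 mM IPTG and 5 mM 3-AT. Libraries were Caulobacter ParB with four randomised specificity codons, sequenced on Illumina before and after selection. Fitness is the rescaled log change in variant-to-wild-type read ratio, anchored to the cognate and non-cognate sites.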
row,Variant,one-hybrid fitness for binding NBS DNA
1,WNLP,≤ 0.2
2,RCDR,0.255
3,RAFL,≤ 0.2
4,FPLI,≤ 0.2
5,APHS,≤ 0.2
6,TQNK,≤ 0.2
7,TFKG,≤ 0.2
8,ATNK,≤ 0.2
9,HLSI,≤ 0.2
10,WLCR,≤ 0.2
11,SCES,≤ 0.2
12,MILS,≤ 0.2
13,YLPE,≤ 0.2
14,PKMS,≤ 0.2
15,SVDI,≤ 0.2
16,AKTF,≤ 0.2
17,PVYI,≤ 0.2
18,RMWR,0.289
19,WQPK,≤ 0.2
20,APWK,≤ 0.2
21,IVFT,≤ 0.2
22,AIVP,≤ 0.2
23,DPIG,≤ 0.2
24,NCEM,≤ 0.2
25,NFPF,≤ 0.2

row,Variant,one-hybrid fitness for binding NBS DNA
1,LEAN,0.333
2,LVPS,≤ 0.2
3,PSGE,≤ 0.2
4,CNLT,≤ 0.2
5,QLRS,0.586
6,ILAK,≤ 0.2
7,TWRH,≤ 0.2
8,VDES,≤ 0.2
9,YRFT,≤ 0.2
10,RGEG,≤ 0.2
11,RMRV,0.24
12,ALPG,≤ 0.2
13,VALV,≤ 0.2
14,HAYL,≤ 0.2
15,QMVP,≤ 0.2
16,ITKA,≤ 0.2
17,AINR,≤ 0.2
18,ASYL,≤ 0.2
19,LLDN,≤ 0.2
20,QSHK,≤ 0.2
21,MPMY,≤ 0.2
22,CNLY,≤ 0.2
23,YPDM,≤ 0.2
24,NMCN,≤ 0.2
25,MRVQ,≤ 0.2

row,Variant,one-hybrid fitness for binding NBS DNA
1,KCGT,≤ 0.2
2,TLTI,≤ 0.2
3,HPQM,≤ 0.2
4,EVIR,≤ 0.2
5,QKFI,≤ 0.2
6,NSRP,≤ 0.2
7,DTQT,≤ 0.2
8,QVYV,≤ 0.2
9,TPNN,≤ 0.2
10,CVYR,≤ 0.2
11,VENR,≤ 0.2
12,PIRN,≤ 0.2
13,TSTM,≤ 0.2
14,RHAL,≤ 0.2
15,RPLF,≤ 0.2
16,KYAE,≤ 0.2
17,PDIL,≤ 0.2
18,SYTV,≤ 0.2
19,NGAF,≤ 0.2
20,YHMT,≤ 0.2
21,RTWI,≤ 0.2
22,ANGG,≤ 0.2
23,YCSG,≤ 0.2
24,TLNT,≤ 0.2
25,HVDM,≤ 0.2

row,Variant,one-hybrid fitness for binding NBS DNA
1,SPRS,≤ 0.2
2,EMAM,≤ 0.2
3,MGQN,≤ 0.2
4,NCRE,≤ 0.2
5,QHTA,0.24
6,KRLH,≤ 0.2
7,MCDG,≤ 0.2
8,WPCC,≤ 0.2
9,ALAH,≤ 0.2
10,QMET,0.295
11,NWRV,≤ 0.2
12,HTGH,≤ 0.2
13,HTQT,≤ 0.2
14,EWIR,≤ 0.2
15,PYQW,≤ 0.2
16,RWSK,≤ 0.2
17,PTHF,≤ 0.2
18,QGAY,≤ 0.2
19,CMAL,≤ 0.2
20,AHVR,≤ 0.2
21,VKER,≤ 0.2
22,KLLF,≤ 0.2
23,GVMW,≤ 0.2
24,RMEW,≤ 0.2
25,CSHI,≤ 0.2

row,Variant,one-hybrid fitness for binding NBS DNA
1,KIAL,≤ 0.2
2,QLCN,≤ 0.2
3,KYNI,≤ 0.2
4,WAPV,≤ 0.2
5,QADA,≤ 0.2
6,CRAL,≤ 0.2
7,NPVG,≤ 0.2
8,HYNT,≤ 0.2
9,LLSW,≤ 0.2
10,TPGA,≤ 0.2
11,GRIP,≤ 0.2
12,YTTE,≤ 0.2
13,NGYC,≤ 0.2
14,RWQV,≤ 0.2
15,SKLC,≤ 0.2
16,LDTG,≤ 0.2
17,KLIR,≤ 0.2
18,WMAT,≤ 0.2
19,CVQW,≤ 0.2
20,HRKV,≤ 0.2
21,RHGV,≤ 0.2
22,SSLM,≤ 0.2
23,QNET,≤ 0.2
24,RFDR,≤ 0.2
25,QVEL,≤ 0.2

row,Variant,one-hybrid fitness for binding NBS DNA
1,QPDL,≤ 0.2
2,TWWE,≤ 0.2
3,HMKI,≤ 0.2
4,TGQG,≤ 0.2
5,YKKS,≤ 0.2
6,HHKV,≤ 0.2
7,REYQ,≤ 0.2
8,TKPW,≤ 0.2
9,RRRF,0.442
10,CLWT,≤ 0.2
11,RYEM,≤ 0.2
12,QGNR,≤ 0.2
13,PSVW,≤ 0.2
14,VGPK,≤ 0.2
15,ISGK,≤ 0.2
16,PSVG,≤ 0.2
17,HHCA,≤ 0.2
18,AKRS,≤ 0.2
19,CSAF,≤ 0.2
20,SCRG,≤ 0.2
21,AHRG,≤ 0.2
22,QLKV,0.342
23,DMNG,≤ 0.2
24,HISR,≤ 0.2
25,HETV,≤ 0.2

row,Variant,one-hybrid fitness for binding NBS DNA
1,VSWV,≤ 0.2
2,EDKW,≤ 0.2
3,GKIG,≤ 0.2
4,AGRY,≤ 0.2
5,AGDY,≤ 0.2
6,FMRT,≤ 0.2
7,NAVK,≤ 0.2
8,RHRM,≤ 0.2
9,IAGG,≤ 0.2
10,GRMC,≤ 0.2
11,DLHA,≤ 0.2
12,SDPP,≤ 0.2
13,KPAS,≤ 0.2
14,RVSQ,≤ 0.2
15,SLYA,≤ 0.2
16,CYFG,≤ 0.2
17,WMES,≤ 0.2
18,CALW,≤ 0.2
19,EWTN,≤ 0.2
20,AQIN,≤ 0.2
21,VITG,≤ 0.2
22,TKCT,≤ 0.2
23,TFKH,≤ 0.2
24,YDTM,≤ 0.2
25,LIER,≤ 0.2

row,Variant,one-hybrid fitness for binding NBS DNA
1,KYRC,≤ 0.2
2,YDIF,≤ 0.2
3,YNGI,≤ 0.2
4,QDND,≤ 0.2
5,QHYY,≤ 0.2
6,HDTI,≤ 0.2
7,LEWT,≤ 0.2
8,PRWK,≤ 0.2
9,DHYM,≤ 0.2
10,YGTA,≤ 0.2
11,WMSG,≤ 0.2
12,YRLL,≤ 0.2
13,CIGS,≤ 0.2
14,VMAP,≤ 0.2
15,ALNT,≤ 0.2
16,WCVS,≤ 0.2
17,VAPP,≤ 0.2
18,MVQC,≤ 0.2
19,QACN,≤ 0.2
20,RTWD,≤ 0.2
